Among all 43,000 compounds or so, about 200 (0.47%) were called active. About 12% were inconclusive and are not listed. The call rests on the fitted dose curve; in most records, active means well fitted cell-killing curve with a large enough effect; inconclusive means small, poorly fitted or top-dose-only effect, or effect the other way; inactive means flat fitted curve, though single readings scatter. The list shows a part of the results.
assay: Cell viability qHTS assay in S16 Pmp22-F2sN cells; details: S16 Pmp22-F2sN Schwann cells (luciferase reporters placed in the Pmp22 gene) viability, CellTiter-Glo, 24 h; series mostly up to 57.5 µM; activity change, negative = cytotoxicity: at the top concentration; further: nearly all actives have a fitted effect of over 65% in size
In short: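 Seed 500-1,000 S16 Pmp22-F2sN cells per well in phenol-red-free DMEM with 10% heat-inactivated FBS; pin-add 23 nL compound; incubate 24 h at 37C; add CellTiter-Glo, wait 15 min protected from light; read luminescence.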
On the % scale 0 is the no-effect control and ±100 the full control effect.

Row | Structure (SMILES) | activity change, negative = cytotoxicity
1 | O=C(O)c1ccc(NCc2nc3ccccc3n2CCOc2ccccc2Cl)cc1 | inactive: -11.1%
2 | O=C(CSc1nc(=O)n(Cc2cccnc2)c2c1CCC2)Nc1cccc(Cl)c1 | inactive: 5.9%
3 | COc1cc2c(=O)n(Cc3ccco3)c(=O)n(CC(=O)Nc3ccc(F)cc3)c2cc1OC | inactive: 2.67%
4 | CCOc1cc2[nH]c(=O)n(Cc3ccc(C(=O)N4CCN(c5ccccc5)CC4)cc3)c(=O)c2cc1OCC | inactive: -20.9%
5 | CSc1ncc(Cl)c(C(=O)Nc2cc(C(F)(F)F)ccc2Cl)n1 | inactive: -2.78%
6 | O=C(CN1CCN(c2ccc(Cl)cc2)CC1)Nc1ccc(Cl)c(C(F)(F)F)c1 | inactive: 8.8%
7 | Cc1ccc(CSc2oc(-c3ccco3)nc2S(=O)(=O)c2ccc(Br)cc2)cc1 | inactive: -7.43%
8 | CC1CCN(C(=O)CSc2nc3c([nH]c4ccccc43)c(=O)n2-c2ccccc2)CC1 | inactive: 9.15%
9 | Cc1ccc(CNC(=O)CCn2ccc3cc(S(=O)(=O)N4CCCC4)ccc32)cc1 | inactive: -0.483%
10 | Cc1ccc(CNc2nc3c(S(=O)(=O)c4ccc(C)c(C)c4)nnn3c3ccc(Cl)cc23)cc1 | inactive: -7.46%
11 | COc1ccccc1NC(=O)CSc1nnc(-c2nonc2NC(C)=O)n1-c1ccccc1 | inactive: -1.51%
12 | CCc1ccc(NC(=O)Cn2c(=O)n(Cc3nc(C)no3)c(=O)c3cc4c(cc32)OCO4)cc1 | inactive: 2.83%
13 | CCOc1ccc(-n2c(=O)c3c4c(sc3n(Cc3cc(=O)n5cc(Cl)ccc5n3)c2=O)CCC4)cc1 | inactive: 11.8%
14 | CCOCCCNC(=O)c1cc2c(=O)n3ccccc3nc2s1 | inactive: 4%
15 | O=C(/C=C\c1ccc2c(c1)OCO2)NC1CC(=O)N(c2ccc(F)cc2)C1 (stereo not given) | inactive: 11.6%
16 | COc1ccc(N2CCN(C(=O)c3ccc(NC(=O)c4nsc5ccccc45)cc3)CC2)cc1 | inactive: -21.5%
17 | CC1CCN(S(=O)(=O)c2cc(C(=O)NCCc3ccccc3)n(C)c2)CC1 | inactive: -0.328%
18 | Cc1ccc(C)c(N2CCN(C(=O)c3cc4cc5ccc(C)cc5nc4s3)CC2)c1 | inactive: 14.9%
19 | CC(C)(C)c1ccc(C(=O)Nc2cc(-c3ccccc3)nn2-c2ccccc2)cc1 | inactive: 25.7%
20 | CCCN(CCC)CCNC(=O)Cn1ncc2c([nH]c3ccc(C)cc32)c1=O | inactive: 15.1%

Row | Structure (SMILES) | activity change, negative = cytotoxicity
21 | COc1ccccc1Nc1nn2c(=O)c3ccc(C(=O)Nc4ccc(F)cc4)cc3nc2s1 | inactive: 20.9%
22 | NC(=O)c1cc(S(=O)(=O)NCc2ccc(Br)cc2)cs1 | inactive: 10.1%
23 | CCOC(=O)c1ccc(NC(=O)CCc2c(C)n(CC)c3cc(-c4ccccc4OC)nn3c2=O)cc1 | inactive: 0.927%
24 | CCc1cccc(-n2c(=O)c3cccnc3n2CC(=O)NCc2ccccc2Cl)c1 | inactive: -2.62%
25 | CCOC(=O)c1[nH]c(C)c(CCC(=O)NCc2ccc(C)cc2)c1C | inactive: 1.31%
26 | Cc1ccc2c(CC(=O)Nc3c(C(=O)c4ccc(F)cc4)oc4ccccc34)coc2c1 | inactive: -2.89%
27 | CCN(c1ccccc1)S(=O)(=O)c1ccc(NC(=O)c2cc(=O)c3ccc(C)c(C)c3o2)cc1 | inactive: -5.57%
28 | COc1ccc(CCNC(=O)CS(=O)Cc2nc(-c3ccc(C)cc3)oc2C)cc1OC (stereo not given) | inactive: 1.64%
29 | O=C(CCSCc1ccc(Cl)cc1)N1CCN(c2ccccc2F)CC1 | inactive: 9.21%
30 | CCC(=O)OCc1cnc(C)c2oc(=O)c(C(=O)Nc3ccc(CC)cc3)cc12 | inactive: 2.97%
31 | CC(NC(=O)C1CCN(C(=O)N2CCOc3ccc(Cl)cc32)CC1)c1ccccc1 (stereo not given) | inactive: 0.256%
32 | COc1ccc(-c2nc3c(c(SCc4cc(C)ccc4C)n2)Cc2c(CO)cnc(C)c2O3)cc1 | inactive: 0.0279%
33 | COc1ccc(N2CCN(C(=O)c3nn(C)c4c3CS(=O)(=O)c3ccccc3-4)CC2)cc1 | inactive: -3.31%
34 | COc1ccc(CNCc2ccc3c(c2)n(C)c(=O)n3C)cc1 | inactive: 4.34%
35 | COc1cccc(C(=O)NC(=O)Nc2ccc(-n3nc(C(F)(F)F)cc3C(F)(F)F)cc2)c1 | inactive: 4.27%
36 | CC(=O)c1ccc(NC(=O)C2=CC(c3cccs3)=NS(=O)(=O)N2C)cc1 | inactive: -2.31%
37 | Cc1cc(C)n(-c2nnc(Nc3ccc(C(C)C)cc3)c3ccccc23)n1 | inactive: 0.243%
38 | Cc1nc2c(c(C)nn2-c2ccccc2)c(C)c1CCC(=O)Nc1ccc(F)cc1 | inactive: -23.6%
39 | COc1cc(Nc2nc(SCc3cccc(Cl)c3)nc3ccccc23)cc(OC)c1 | inactive: -21.6%
40 | COc1ccc(NC(=O)C2CCCN(S(=O)(=O)c3ccc(Cl)cc3)C2)cc1 (stereo not given) | inactive: 8.96%

Row | Structure (SMILES) | activity change, negative = cytotoxicity
41 | Cc1ccc(C)c(N2CCN(c3nccn4nc(-c5ccc(Br)cc5)cc34)CC2)c1 | inactive: 14.8%
42 | Cc1ccc(Cl)cc1NC(=O)C(NS(=O)(=O)c1cccc2nsnc12)c1ccccc1 (stereo not given) | inactive: 2.39%
43 | O=C(NCc1ccccc1F)C1CCN(Cc2cc3ccccc3n2Cc2cccc(Cl)c2)CC1 | inactive: -25.6%
44 | Cn1c(=O)oc2cc(S(=O)(=O)CCC(=O)NCCc3ccccc3)ccc21 | inactive: 7.91%
45 | CC(=O)c1cc(-c2ccc(F)cc2)n(CC(=O)NC(C)c2ccccc2)c1C (stereo not given) | inactive: 0.0696%
46 | Cc1cccn2c(=O)c(/C=C(\C#N)c3nc4ccccc4s3)c(Oc3ccc(Br)cc3)nc12 | inactive: 4.77%
47 | O=C(COCc1cc(-c2cccs2)on1)NCc1ccccc1Cl | inactive: -1.11%
48 | Cc1nc2nc(NC(=O)c3ccc(F)cc3)[nH]n2c(=O)c1Cc1ccccc1 | inactive: 3.42%
49 | Cc1ccc(Cc2c(C)nn(-c3nc(C)c(C(=O)N4CCCCC4C)s3)c2C)cc1 (stereo not given) | inactive: 9.48%
50 | COc1ccc(NC(=O)C2CCCN(S(=O)(=O)c3c(C)n[nH]c3C)C2)cc1OC (stereo not given) | inactive: -0.804%
51 | COc1ccc(-c2cc(OC(=O)c3ccc(F)cc3)c3c(C)oc(C)c3c(=O)c2)cc1OC | inactive: -18.1%
52 | CCC(=O)N1CCc2cc(S(=O)(=O)NC(C(=O)NCCc3ccc(Cl)cc3)C(C)C)ccc21 (stereo not given) | inactive: 3.36%
53 | Cc1cccc(NC(=O)CN2c3ccccc3S(=O)(=O)c3ccccc32)c1C | inactive: -6.46%
54 | Cc1ccc(CNC(=O)Cn2c(=O)n(-c3ccc(C)c(F)c3)c(=O)c3sc4ccccc4c32)cc1 | inactive: 7.25%
55 | Cc1ccc(S(=O)(=O)N(CC(=O)N2CCc3ccccc3C2)c2ccc(C)c(C)c2)cc1 | inactive: -16.9%
56 | Cn1nnnc1SCCNCc1ccc(OCc2ccccc2)cc1 | inactive: -2.48%
57 | COC(=O)c1sccc1S(=O)(=O)N(CC(=O)NCc1ccccc1)c1ccc(C)c(C)c1 | inactive: 10.3%
58 | CCOC(=O)c1c(C)c(-c2ccccc2)n(CC(=O)Nc2cccc(F)c2)c1C | inactive: 7.6%
59 | CCOc1ccc(NC(=O)CCS(=O)(=O)c2ccc(Br)s2)cc1 | inactive: 6.19%
60 | Cc1cccc(NC(=O)CN2C(=O)COc3ccc(S(=O)(=O)N4CCC(C)CC4)cc32)c1C | inactive: 1.47%

Reference: PubChem BioAssay AID1508642 (National Center for Advancing Translational Sciences (NCATS), 2021)
